Among all 200,000 compounds or so, about 4,500 (2.2%) were called active. Inconclusive means that the source gave no clear call. Such entries were picked first, then a sample of the others. Calls come from the whole dose curve; as a rule, active = well fitted inhibition curve with a large enough effect; inconclusive = small, poorly fitted or top-dose-only effect, or effect the other way; inactive = flat fitted curve, though single readings scatter. Potencies of inconclusive entries are doubtful fits and often do not repeat.
What follows are compounds tested against Cruzipain (Trypanosoma cruzi) (UniProt P25779) (assay: qHTS Assay for Promiscuous and Specific Inhibitors of Cruzain (without detergent)). Conditions: purified cruzain, Z-FR-AMC fluorescence, no detergent.
Method in brief: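 Purified cruzain at 1.5 nM, pre-incubated 15 min with compound at room temperature in 100 mM sodium acetate pH 5.5, 5 mM DTT, 0.00005% Triton X-100. Reaction started with 2 uM Z-FR-AMC; AMC fluorescence increase over 60 s gives rate.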
Note: nearly all actives have a fitted effect of over 40% in size.
Potency is the fitted concentration of half-maximal effect; tags give direction and shape of the fitted curve.
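Throughout, for max response, negative = inhibition: plate controls were enzyme without inhibitor for no effect and buffer without enzyme for full effect.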

UniProt P25779, sequence (P25779 whole entry, looked up): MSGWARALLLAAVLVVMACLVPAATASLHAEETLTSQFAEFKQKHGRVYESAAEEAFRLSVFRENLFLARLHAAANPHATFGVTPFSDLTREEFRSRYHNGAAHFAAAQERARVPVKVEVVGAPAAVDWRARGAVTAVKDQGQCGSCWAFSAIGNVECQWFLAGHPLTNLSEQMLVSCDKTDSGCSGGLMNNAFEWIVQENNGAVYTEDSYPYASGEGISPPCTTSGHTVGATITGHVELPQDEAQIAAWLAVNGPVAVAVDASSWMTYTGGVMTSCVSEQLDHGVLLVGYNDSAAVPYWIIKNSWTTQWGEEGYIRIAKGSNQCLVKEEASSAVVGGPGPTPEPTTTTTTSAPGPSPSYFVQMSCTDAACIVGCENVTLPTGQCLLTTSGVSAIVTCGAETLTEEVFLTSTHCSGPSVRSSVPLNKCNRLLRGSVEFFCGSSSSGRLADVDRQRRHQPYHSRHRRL

Structure (SMILES) | Potency | max response, negative = inhibition
CCCCSc1nc(O)c(Cc2ccccc2)c(=O)[nH]1 | inconclusive: 31.6 µM [inhibitor, single point] | 
Cc1ccc(O)c(NC(=O)c2cc(-c3ccc(F)cc3)no2)c1 | inconclusive: 39.8 µM [activator, single point] | 
CC(=O)C(Sc1nc(N2CCOCC2)nc(N2CCOCC2)n1)C(=O)Nc1ccccc1 (centres undefined) | inconclusive: 25.1 µM [activator, single point] | 
CCc1ccc(NC(=O)C(=O)NCC(c2ccc3c(c2)OCO3)N2CCN(C)CC2)cc1 (centres undefined) |  | inactive: -16.8%
COc1ccc(Nc2ncc(C(=O)Nc3cccc(Cl)c3)c3ccccc23)cc1 | inconclusive: 39.8 µM [inhibitor, single point] | 
COc1ccc(COCC(CC(C)C)N2CCN(C(=O)c3cccc(C(F)(F)F)c3)CCC2=O)cc1 (centres undefined) | inconclusive: 25.1 µM [activator, partial curve] | 
O=C(N/N=C/c1cccnc1)c1cc(-c2cccs2)nc2ccccc12 | inconclusive: 25.1 µM [activator, single point] | 
COc1ccccc1Nc1nc(C)nc(N)c1S(=O)(=O)c1ccccc1 |  | inactive: -11.9%
Cc1nc2c3cccnc3nn2c(C)c1CCC(=O)NCc1ccccc1 |  | inactive: 2.9%
CCCCCCc1cc2cc(C(=O)Nc3cccc(OC)c3)c(=O)oc2cc1O | inconclusive: 5.01 µM [inhibitor, full curve] | 
O=C(CCCN1C(=O)/C(=C\c2ccco2)SC1=S)Nc1cccc2ccccc12 |  | inactive: -12.6%
O=C(Cn1c(-c2cccs2)cc2cc(F)ccc21)NCCc1ccc(Cl)cc1 | active: 12.6 µM | 
CC(C)n1cc(/C=C2/SC(=O)N(CC(=O)Nc3ccc4c(c3)OCO4)C2=O)c2ccccc21 | active: 10 µM | 
CCn1ccc2c(OCC(=O)Nc3ccc(OC)cc3OC)cccc2c1=O | inconclusive: 39.8 µM [inhibitor, single point] | 
COc1ccc(-c2nc(CNC(=O)Nc3ccccc3)c(C)o2)c(OC)c1 |  | inactive: 0.606%
Cc1ccc2cc3c(NC(=O)c4ccco4)nn(C)c3nc2c1 | inconclusive: 31.6 µM [activator, single point] | 
CC(=O)C1=C(O)C(=O)N(c2cc(C(C)(C)C)on2)C1c1ccc(C(C)C)cc1 (centres undefined) | inconclusive: 39.8 µM [activator, single point] | 
COc1cccc(-c2nc(CS(=O)(=O)CC(=O)N3CCN(c4ccccc4)CC3)c(C)o2)c1 | inconclusive: 39.8 µM [activator, single point] | 
Cc1cc(C)c(CSc2ncc(-c3ccc([N+](=O)[O-])cc3)[nH]2)c(C)c1 | inconclusive: 31.6 µM [inhibitor, single point] | 
COCCN(CCOC)S(=O)(=O)c1ccc(C(=O)Nc2nc(C)c(C(C)=O)s2)cc1 |  | inactive: 21.1%
Cc1cc(C)n2nc(CNC(=O)c3ccc(Cl)cc3)nc2n1 |  | inactive: -1.77%
COc1cc(C(=O)OCC(=O)c2c[nH]c3ccccc23)ccc1OCC(=O)N1CCOCC1 | inconclusive: 31.6 µM [activator, single point] | 

Structure (SMILES) | Potency | max response, negative = inhibition
Cc1cccc(N2CCN(C(=O)c3ccc(Cl)c(S(=O)(=O)NCc4ccco4)c3)CC2)c1C |  | inactive: -10.8%
CC1CCC(NC(=O)c2ccc(CSc3nc4ccncc4n3Cc3ccc(F)cc3)cc2)CC1 (centres undefined) | inconclusive: 39.8 µM [inhibitor, single point] | 
COc1ccc(OC)c(-c2nnc(SCC(=O)N3CCCc4ccccc43)o2)c1 | inconclusive: 39.8 µM [activator, single point] | 
COc1cc(NC(=O)c2noc3c2CC(C)CC3)c(OC)cc1Cl (centres undefined) |  | inactive: 1.71%
COc1cccc(Nc2ncccc2C(=O)NCc2ccccc2)c1 | inconclusive: 15.8 µM [inhibitor, partial curve] | 
COc1cccc(NC(=S)N(CCc2c(C)[nH]c3ccccc23)Cc2ccco2)c1 | inconclusive: 39.8 µM [inhibitor, single point] | 
Cc1nn(-c2ccccc2)c2c1N(CCCC(=O)NC(C)c1ccccc1)C(=O)CS2 (centres undefined) | inconclusive: 39.8 µM [activator, single point] | 
CC(C)(C)c1nc(SCC(=O)Nc2nc3c(s2)CCCC3)c2ccccc2n1 | inconclusive: 31.6 µM [inhibitor, single point] | 
FC(F)(F)c1cccc(Sc2cc(C(F)(F)F)nc(-c3ccccn3)n2)c1 | inconclusive: 39.8 µM [activator, single point] | 
COc1cc(-c2nnc(COC(=O)CSc3cc(C)c4ccccc4n3)o2)cc(OC)c1OC | inconclusive: 39.8 µM [activator, single point] | 
Oc1ccc(N2CCN(c3ncnc4sc5c(c34)CCC5)CC2)cc1 | inconclusive: 25.1 µM [inhibitor, single point] | 
COc1ccc2c(c1)c(N1CCCC1=O)c(C(=O)Nc1ccc(OC)c(Cl)c1)n2C | inconclusive: 39.8 µM [activator, single point] | 
S=C(Nc1ccccn1)c1ccccn1 |  | inactive: -6.12%
CCCN(CCC)C(=O)CC(c1ccc(F)cc1)c1ccco1 (centres undefined) | inconclusive: 25.1 µM [activator, single point] | 
CCOC(=O)c1cccc(-n2c(-c3ccc(OC)cc3)nc3nc4ccccc4nc32)c1 | inconclusive: 31.6 µM [activator, single point] | 
CCn1cc(/C=N\NC(=O)c2cc(-c3ccccc3OC)nc3ccccc23)c(C)n1 | inconclusive: 25.1 µM [activator, partial curve] | 
COc1cccc(NC(=O)Cn2c(=O)n(Cc3ccc4c(c3)OCO4)c(=O)c3oc4ccccc4c32)c1 | inconclusive: 31.6 µM [inhibitor, single point] | 
C=CCn1c(SCC(=O)O)nnc1-c1ccccc1 |  | inactive: -8.63%
C=CCn1c(O)c(N=NC(=S)Nc2ccc(OC)cc2)c2ccccc21 | inconclusive: 31.6 µM [inhibitor, single point] | 
Cc1ccc2c(c1)cc(CN(Cc1ccc3c(c1)OCO3)C(=O)c1ccccc1)c1nnnn12 | inconclusive: 31.6 µM [inhibitor, single point] | 
COc1ccc(NC(=O)[C@H](Cc2ccccc2)N2Cc3ccccc3C2=O)cc1OC | inconclusive: 39.8 µM [activator, single point] | 
CC(C)C(=O)c1cn(CC(=O)N2CCCc3ccccc32)c2ccccc12 |  | inactive: -5.71%

Structure (SMILES) | Potency | max response, negative = inhibition
COc1ccc(Cl)c2sc(NC(=O)c3ccc(S(=O)(=O)N4CCOCC4)cc3)nc12 |  | inactive: 10.6%
Cc1ccc(NS(=O)(=O)c2cc([N+](=O)[O-])ccc2NNC(=S)Nc2cc(C)ccc2C)c(C)c1 | inconclusive: 20 µM [inhibitor, partial curve, poor fit] | 
O=S(=O)(Nc1ccc(-c2cn3ccsc3n2)cc1)c1ccc2c(c1)OCCO2 | inconclusive: 25.1 µM [inhibitor, single point] | 
COc1cc(OC)cc(-c2nc3nc(C)c(CCC(=O)NCc4ccco4)c(C)n3n2)c1 | inconclusive: 31.6 µM [activator, single point] | 
C=C1C/C(=C\C)C(=O)O[C@@H]2CCN3CC=C(COC(=O)[C@@]1(C)O)[C@H]23 |  | inactive: -9.69%
COc1ccc(S(=O)(=O)N2CCC(C(=O)N3CCOCC3)CC2)cc1 |  | inactive: 7.94%
Cn1nc(-c2ccccc2)c(C(=O)Nc2ccc(Cl)cc2)c1Cl | inconclusive: 31.6 µM [inhibitor, single point] | 
COc1ccc(CCNC2=C(Cl)C(=O)N(CCc3ccccc3)C2=O)cc1OC | inconclusive: 25.1 µM [activator, single point] | 
COc1ccc(NC(=O)COCc2cc(-c3ccc4c(c3)OCO4)on2)cc1 |  | inactive: 2.33%
CC(C)OCCCNC(=O)c1cc2c(=O)n(C)c3ccccc3c2n1C | inconclusive: 31.6 µM [activator, single point] | 
COc1cc(/C=C/c2nc(C#N)c(N3CCN(C)CC3)o2)cc(OC)c1OC | active: 12.6 µM | 
O=C(Nc1nnc(SCc2ccccc2)s1)c1cccs1 | inconclusive: 10 µM [inhibitor, single point] | 
C/C(CC1CC(COCC(C)C)OC1=O)=N\NC(N)=S (centres undefined) | inconclusive: 1.26 µM [inhibitor, full curve, poor fit] | 
CC(=O)N1CCc2cc(Br)cc(S(=O)(=O)CCC(=O)N3CCN(c4ccc(F)cc4)CC3)c21 | inconclusive: 39.8 µM [activator, single point] | 
COc1ccc(/C=N/Nc2cc(C)nc(-n3nc(C)cc3C)n2)cc1 | inconclusive: 39.8 µM [activator, single point] | 
Cc1nn(C)c2c1c(C(F)(F)F)cc(=O)n2C(C)C(=O)Nc1ccccc1F (centres undefined) | inconclusive: 31.6 µM [activator, single point] | 
CCOc1ccc(C(=O)c2cn(CC(=O)Nc3ccc(Cl)cc3)c3cc4c(cc3c2=O)OCO4)cc1 | inconclusive: 3.16 µM [inhibitor, full curve] | 
COc1ccc(-c2nnc(SCC(=O)Nc3cccc(C(F)(F)F)c3)s2)cc1 |  | inactive: -19.1%
CCn1c(CNC(=O)COc2ccc(C(C)C)cc2)nnc1SCC(=O)NC1CCCCC1C (centres undefined) | inconclusive: 25.1 µM [activator, partial curve] | 
COc1ccc(-c2noc(CN(C(=O)c3ccc(OC(C)=O)cc3)C(C)C)n2)cc1OC | inconclusive: 31.6 µM [activator, single point] | 

Reference: PubChem BioAssay AID1476 (National Center for Advancing Translational Sciences (NCATS), 2009)
